Laboratory results reported in the supplement of paper PMC9135407.
Values joined by “and” are separate entries in the source; they are usually repeats but may differ in a detail not shown here. Identical values can stand only once. Counter-ions that a name gives are not always drawn. The whole screen tested about 5,800 compounds, of which about 620 (11%) showed activity.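 The calls were made as follows: active = score above a cut-off or among the top three wells of a plate; in these data no inactive exceeds 0.85.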 Only a part is listed here, and it is no random draw.

Tested on: primary human hepatic stellate cells (donor 1)
Assay: scaled lipid accumulation score (0 = DMSO-like, 1 = nortriptyline-like); higher = stronger HSC inactivation (lipid re-accumulation), active = hit call of the paper
Settings: 48 h
[1] = library stock concentration: 3.33 mM
[2] = library stock concentration: 10 mM
[3] = library stock concentration: 80 uM
[4] = library stock concentration: 400 uM
[5] = library stock concentration: 2 mM
[6] = library stock concentration: 1 mM

## Nc1nc(=O)[nH]cc1F [Flucytosine]
  scaled lipid accumulation score: inactive: ≤ 0
[1]
  scaled lipid accumulation score: inactive: ≤ 0
[2]
  scaled lipid accumulation score: inactive: ≤ 0
Library stock concentration: 15.5 mM
  scaled lipid accumulation score: inactive: ≤ 0

## Oc1cc(O)cc(/C=C/c2ccc(O)c(O)c2)c1 [Piceatannol]
[1]
  scaled lipid accumulation score: inactive: 0.001
[2]
  scaled lipid accumulation score: inactive: ≤ 0 and inactive: 0.452 and inactive: 0.038

## Cc1cccc(C)c1NC(=O)CN1CCN(CCCC(c2ccc(F)cc2)c2ccc(F)cc2)CC1 [Lidoflazine]
  scaled lipid accumulation score: inactive: ≤ 0

## CN(C)CCCN1c2ccccc2CCc2ccc(Cl)cc21.Cl [Clomipramine hydrochloride]
  scaled lipid accumulation score: active: 0.968

## COc1cc(C)c(Cc2cnc(N)nc2N)cc1OC
[2]
  scaled lipid accumulation score: inactive: ≤ 0

## Cc1c(C)c2c(c(C)c1O)CCC(C)(CCCC(C)CCCC(C)CCCC(C)C)O2 (stereo not drawn) [Alpha-tochopherol]
[2]
  scaled lipid accumulation score: inactive: ≤ 0

## CN(C)C(=O)c1cc2cnc(Nc3ccc(N4CCNCC4)cn3)nc2n1C1CCCC1 [Ribociclib]
[3]
  scaled lipid accumulation score: inactive: ≤ 0
[4]
  scaled lipid accumulation score: inactive: 0.035
[5]
  scaled lipid accumulation score: inactive: ≤ 0
[2]
  scaled lipid accumulation score: inactive: 0.295

## CN(C)C(=O)c1cc2cnc(Nc3ccc(N4CCNCC4)cn3)nc2n1C1CCCC1
[1]
  scaled lipid accumulation score: inactive: 0.18
[2]
  scaled lipid accumulation score: inactive: 0.69

## NC[C@H]1O[C@H](O[C@H]2[C@H](O)[C@@H](O[C@H]3O[C@H](CO)[C@@H](O)[C@H](N)[C@H]3O)[C@H](N)C[C@@H]2N)[C@H](N)[C@@H](O)[C@@H]1O [Bekanamycin sulfate]
[2]
  scaled lipid accumulation score: inactive: 0.004

## C=C1[C@H](CO)[C@@H](O)C[C@@H]1n1cnc2c(=O)[nH]c(N)nc21 [Entecavir Hydrate]
[1]
  scaled lipid accumulation score: inactive: ≤ 0
[2]
  scaled lipid accumulation score: inactive: ≤ 0

## C[C@@H]1O[C@@H](OC[C@H]2O[C@@H](Oc3c(-c4ccc(O)c(O)c4)oc4cc(O)cc(O)c4c3=O)[C@H](O)[C@@H](O)[C@@H]2O)[C@H](O)[C@H](O)[C@H]1O
[2]
  scaled lipid accumulation score: inactive: ≤ 0

## C[C@@H]1O[C@@H](OC[C@H]2O[C@@H](Oc3c(-c4ccc(O)c(O)c4)oc4cc(O)cc(O)c4c3=O)[C@H](O)[C@@H](O)[C@@H]2O)[C@H](O)[C@H](O)[C@H]1O [Rutin]
[1]
  scaled lipid accumulation score: inactive: ≤ 0
[2]
  scaled lipid accumulation score: inactive: 0.08

## C=C1C(=CC=C2CCC[C@]3(C)[C@@H]([C@H](C)CCCC(C)C)CC[C@@H]23)C[C@@H](O)C[C@@H]1O [Alfacalcidol]
[2]
  scaled lipid accumulation score: active: 1.03

## COc1ccnc2[nH]cc(C(=O)C(=O)N3CCN(C(=O)c4ccccc4)C[C@H]3C)c12
[1]
  scaled lipid accumulation score: inactive: ≤ 0
[2]
  scaled lipid accumulation score: inactive: 0.019

## CCCC(=O)Nc1ccc(OCC(O)CNC(C)C)c(C(C)=O)c1 (stereo unspecified) [Acebutolol hydrochloride]
  scaled lipid accumulation score: inactive: ≤ 0
Library stock concentration: 5.4 mM
  scaled lipid accumulation score: inactive: ≤ 0
[2]
  scaled lipid accumulation score: inactive: ≤ 0

## CCCC(=O)Nc1ccc(OCC(O)CNC(C)C)c(C(C)=O)c1 (stereo unspecified) [Acebutolol HCl]
[1]
  scaled lipid accumulation score: inactive: ≤ 0
[2]
  scaled lipid accumulation score: inactive: ≤ -0.001

## CC(=O)Nc1ccc(OCC(O)CNC(C)C)cc1 (stereo unspecified) [Practolol]
  scaled lipid accumulation score: inactive: ≤ 0
Library stock concentration: 7.5 mM
  scaled lipid accumulation score: inactive: ≤ -0.006

## N[C@@H]1CCN(O)C1=O
[2]
  scaled lipid accumulation score: inactive: ≤ 0

## CO/N=C(\C(=O)N[C@@H]1C(=O)N2C(C(=O)O)=C(CSC(=O)c3ccco3)CS[C@H]12)c1csc(N)n1
[2]
  scaled lipid accumulation score: inactive: ≤ 0

## CO/N=C(\C(=O)N[C@@H]1C(=O)N2C(C(=O)O)=C(CSC(=O)c3ccco3)CS[C@H]12)c1csc(N)n1 [Ceftiofur HCl]
[1]
  scaled lipid accumulation score: inactive: 0.015
[2]
  scaled lipid accumulation score: inactive: ≤ 0

## C#CCCCCCCCCCCCCCCCC(=O)O [17-Octadecynoic Acid]
[6]
  scaled lipid accumulation score: inactive: 0.016

## C#CCCCCCCCCCCCCCCCC(=O)O [17-Octadecynoic acid]
[6]
  scaled lipid accumulation score: inactive: 0.029

## O=C(O)CCC/C=C\C[C@@H]1C(=O)C[C@@H](O)[C@@H]1/C=C/[C@@H](O)CC1CCCCC1 [8-iso-16-cyclohexyl-tetranor Prostaglandin E2]
[6]
  scaled lipid accumulation score: inactive: ≤ 0

## COc1cc2c(cc1O)[C@@H](Cc1ccc(O)cc1)[N+](C)(C)CC2 [Magnocurarine iodide]
[2]
  scaled lipid accumulation score: inactive: 0.116

## C[C@H](CCC(=O)O)[C@H]1CC[C@H]2[C@@H]3C[C@H](O)[C@@H]4C[C@H](O)CC[C@]4(C)[C@H]3CC[C@]12C [Hyodeoxycholic acid (HDCA)]
[1]
  scaled lipid accumulation score: inactive: ≤ 0
[2]
  scaled lipid accumulation score: inactive: ≤ 0

## N=C(N)c1ccc(N=NNc2ccc(C(=N)N)cc2)cc1
[2]
  scaled lipid accumulation score: inactive: 0.113

## N=C(N)c1ccc(N=NNc2ccc(C(=N)N)cc2)cc1 [Diminazene Aceturate]
[1]
  scaled lipid accumulation score: inactive: ≤ 0
[2]
  scaled lipid accumulation score: inactive: ≤ -0.001

## COc1cc2ncnc(Sc3nnc(C)s3)c2cc1OC
[2]
  scaled lipid accumulation score: active: 0.919

## O=C(Nc1ccccc1)OCC(CN1CCCCC1)OC(=O)Nc1ccccc1 (stereo unspecified) [Diperodon hydrochloride]
  scaled lipid accumulation score: inactive: 0.714

## CC1(C)C(=O)N(CCN2CCC(C(=O)c3ccc(F)cc3)CC2)c2ccccc21 [LY-310,762 hydrochloride]
[2]
  scaled lipid accumulation score: inactive: 0.041

## NC(=O)Nc1sc(-c2ccc(F)cc2)cc1C(N)=O
[3]
  scaled lipid accumulation score: inactive: ≤ -0.009
[4]
  scaled lipid accumulation score: inactive: ≤ -0.009
[5]
  scaled lipid accumulation score: inactive: ≤ -0.009
[1]
  scaled lipid accumulation score: inactive: ≤ 0
[2]
  scaled lipid accumulation score: inactive: ≤ 0 and inactive: 0.009

## N[C@@H](CC(=O)N1CCn2c(nnc2C(F)(F)F)C1)Cc1cc(F)c(F)cc1F [Sitagliptin phosphate monohydrate]
[1]
  scaled lipid accumulation score: inactive: ≤ 0
[2]
  scaled lipid accumulation score: inactive: ≤ 0

## N[C@@H](CC(=O)N1CCn2c(nnc2C(F)(F)F)C1)Cc1cc(F)c(F)cc1F [Sitagliptin]
Library stock concentration: 4.9 mM
  scaled lipid accumulation score: inactive: ≤ 0

## C[C@@H]1O[C@@H](O[C@H]2[C@H](Oc3cc(O)c4c(c3)O[C@H](c3ccc(O)cc3)CC4=O)O[C@H](CO)[C@@H](O)[C@@H]2O)[C@H](O)[C@H](O)[C@H]1O [Naringin]
[1]
  scaled lipid accumulation score: inactive: 0.01
[2]
  scaled lipid accumulation score: inactive: ≤ 0

## C[C@@H]1O[C@@H](O[C@H]2[C@H](Oc3cc(O)c4c(c3)O[C@H](c3ccc(O)cc3)CC4=O)O[C@H](CO)[C@@H](O)[C@@H]2O)[C@H](O)[C@H](O)[C@H]1O [Naringin hydrate]
  scaled lipid accumulation score: inactive: ≤ 0

## Cn1cc(C2=C(c3cn(CCCSC(=N)N)c4ccccc34)C(=O)NC2=O)c2ccccc21 [Bisindolylmaleimide IX (mesylate)]
[6]
  scaled lipid accumulation score: inactive: ≤ 0

## Cn1cc(C2=C(c3cn(CCCSC(=N)N)c4ccccc34)C(=O)NC2=O)c2ccccc21
[3]
  scaled lipid accumulation score: inactive: 0.068
[4]
  scaled lipid accumulation score: inactive: 0.267
[5]
  scaled lipid accumulation score: inactive: ≤ 0
[1]
  scaled lipid accumulation score: inactive: ≤ 0
[2]
  scaled lipid accumulation score: inactive: 0.848
Library stock concentration: 10.9 mM
  scaled lipid accumulation score: inactive: 0.832

## Cn1cc(C2=C(c3cn(CCCSC(=N)N)c4ccccc34)C(=O)NC2=O)c2ccccc21 [Ro 31-8220 mesylate]
[2]
  scaled lipid accumulation score: inactive: ≤ -0.001

## Cn1cc(C2=C(c3cn(CCCSC(=N)N)c4ccccc34)C(=O)NC2=O)c2ccccc21 [Ro 31-8220 Mesylate]
[1]
  scaled lipid accumulation score: inactive: ≤ -0.009
[2]
  scaled lipid accumulation score: inactive: 0.514

## Nc1ccccc1NC(=O)CCCCCCC(=O)Nc1ccccc1
[6]
  scaled lipid accumulation score: inactive: 0.001

## C=COCC(F)(F)F
[2]
  scaled lipid accumulation score: inactive: ≤ 0

## COc1cc2ncn(-c3cc(OCc4ccccc4S(C)(=O)=O)c(C#N)s3)c2cc1OC [IKK-3 Inhibitor IX]
[1]
  scaled lipid accumulation score: inactive: ≤ 0

## COc1nc(C)cnc1NS(=O)(=O)c1cccnc1-c1ccc(-c2nnco2)cc1 [Zibotentan (ZD4054)]
[1]
  scaled lipid accumulation score: inactive: ≤ 0
[2]
  scaled lipid accumulation score: inactive: ≤ 0

## C/C(O)=C(\C#N)C(=O)Nc1ccc(C(F)(F)F)cc1 [Teriflunomide]
[1]
  scaled lipid accumulation score: inactive: ≤ 0
[2]
  scaled lipid accumulation score: inactive: ≤ -0.001

## Cc1oc(=O)oc1CN1CCN(c2cc3c(cc2F)c(=O)c(C(=O)O)c2n3C(C)S2)CC1 (stereo unspecified)
[2]
  scaled lipid accumulation score: inactive: ≤ 0

## Cn1cc(/C=C/C(=O)c2cccc(F)c2)cc1/C=C/C(=O)NO
[3]
  scaled lipid accumulation score: inactive: ≤ 0
[4]
  scaled lipid accumulation score: inactive: ≤ 0
[5]
  scaled lipid accumulation score: inactive: ≤ 0
[1]
  scaled lipid accumulation score: inactive: 0.058
[2]
  scaled lipid accumulation score: inactive: 0.429 and inactive: 0.113

## N=C(N=C(N)N)N1CCOCC1 [Moroxidine hydrochloride]
  scaled lipid accumulation score: inactive: ≤ 0

## Nc1nccc2c1ncn2C1C=C(CO)C(O)C1O (stereo unspecified) [3-Deazaneplanocin A (DZNeP)]
[1]
  scaled lipid accumulation score: inactive: ≤ -0.009
[2]
  scaled lipid accumulation score: inactive: ≤ 0

## CC(=O)OCC(=O)[C@@]12OC3(CCCC3)O[C@@H]1C[C@H]1[C@@H]3CCC4=CC(=O)C=C[C@]4(C)[C@@]3(F)[C@@H](O)C[C@@]12C
[2]
  scaled lipid accumulation score: inactive: ≤ 0

## CC(=O)OCC(=O)[C@@]12OC3(CCCC3)O[C@@H]1C[C@H]1[C@@H]3CCC4=CC(=O)C=C[C@]4(C)[C@@]3(F)[C@@H](O)C[C@@]12C [Amcinonide]
Library stock concentration: 4 mM
  scaled lipid accumulation score: inactive: ≤ 0
[2]
  scaled lipid accumulation score: inactive: ≤ -0.002

## Cc1nc(N(C)C(=O)Cc2ccc(-c3ccccn3)cc2)sc1S(N)(=O)=O [Pritelivir (BAY 57-1293)]
[1]
  scaled lipid accumulation score: inactive: ≤ -0.009
[2]
  scaled lipid accumulation score: inactive: ≤ 0

## C=C1CCC(O)C/C1=C\C=C1\CCCC2(C)C1CCC2C(C)CCC(O)C(C)(C)O (stereo unspecified) [24,25-Dihydroxyvitamin D3]
[6]
  scaled lipid accumulation score: inactive: 0.016

## CC(Cc1ccc(O)c(O)c1)C(C)Cc1ccc(O)c(O)c1 (stereo unspecified) [Nordihydroguaiaretic Acid]
[6]
  scaled lipid accumulation score: inactive: 0.042

## C[C@@H](C(=O)O)c1ccc(-c2ccccc2)c(F)c1 [(R)-Flurbiprofen]
[6]
  scaled lipid accumulation score: inactive: 0.021

## C(=C(\CCNC1)/C1)(/c2c(cccn2)CC3)\c(ccc(Cl)c4)c34 [Desloratadine]
Library stock concentration: 6.4 mM
  scaled lipid accumulation score: active: 1.03

## CCC(CC)(NC(=O)C(C)C)C(=O)N[C@@H](CCCN=C(N)N)C(=O)NC1(C(=O)NC(c2ccc(F)cc2)c2ccc(F)cc2)CCCC1
[1]
  scaled lipid accumulation score: inactive: ≤ -0.009
[2]
  scaled lipid accumulation score: inactive: ≤ 0
